In all, about 33,000 sequences were measured (“E-score (-0.5 to 0.5)”: median about -0.01, highest 2% from about 0.26 on). The list shows a part of the results.
Target: Ste12 (UniProt P13574)
Test: PBM E-score (8-mer binding enrichment) (E-score (-0.5 to 0.5)); higher = stronger / more preferred TF binding; most listed sequences are background and not binding sites
Conditions: protein concentration: 200 nM; construct: GST-DNA-binding domain
In short: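 Universal all-10-mer Agilent arrays, fresh or stripped once, were converted to double-stranded form by primer extension. GST-tagged yeast transcription factors from PURExpress in vitro transcription/translation, full-length or DNA-binding domain only, were applied at about 100-200 nM and detected with fluorescent anti-GST. After masliner normalisation, the Universal PBM Analysis Suite scored each ungapped eight-base word together with its reverse complement by E-score.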

Compared with GAAATCTA, ATGTCTGG is lower in “PBM E-score” value: 0.195 for the first, 0.0356 for the second.

First: CCTGTCGC
Second: AGAATTCT
The “PBM E-score” value of the first is lower: 0.0402 for the first, 0.191 for the second.

First: AGGGAATG
Second: AGACAGTG
The “PBM E-score” value of the first is higher: -0.0251 for the first, -0.111 for the second.

Compared with GCTGCACA, ACTTGAGG is higher in “PBM E-score” value: -0.276 for the first, -0.153 for the second.

Compared with CAAGGACG, ACCTAACA is higher in “PBM E-score” value: -0.182 for the first, 0.0432 for the second.

Compared with GAAACGAC, AAAAAAAC is higher in “PBM E-score” value: 0.317 for the first, 0.331 for the second.

Going from ACCCCGTA to GACGAACA, the “PBM E-score” value falls from 0.0615 to -0.0924.

First: ATTCAAGA
Second: AGTTGGGG
The “PBM E-score” value of the first is lower: -0.0178 for the first, 0.00712 for the second.

Going from CAAAAGGA to CGCACATA, the “PBM E-score” value falls from -0.0652 to -0.244.

First: AGAGAGCT
Second: CCAGGCCG
The “PBM E-score” value of the first is lower: -0.158 for the first, 0.039 for the second.

Compared with CTCGTCTA, AAGTACAC is higher in “PBM E-score” value: -0.194 for the first, 0.0171 for the second.

First: AAGCAATA
Second: ATAGGCCC
The “PBM E-score” value of the first is lower: 0.0028 for the first, 0.126 for the second.

Compared with AACGGCTA, GTCCTCAC is higher in “PBM E-score” value: -0.149 for the first, -0.139 for the second.

Going from GGCAGAAA to CGCTAGTC, the “PBM E-score” value falls from 0.121 to -0.27.

First: GTTTTTCA
Second: AGTTCCGC
The “PBM E-score” value of the first is higher: 0.217 for the first, 0.0333 for the second.

First: ACGAGGAT
Second: CTCCTTAC
The “PBM E-score” value of the first is lower: -0.149 for the first, -0.0238 for the second.

Going from AGCGTCCT to ACATTAAC, the “PBM E-score” value rises from -0.135 to 0.202.

Going from ACTGCTCA to GGTCCTTA, the “PBM E-score” value rises from -0.00239 to 0.0224.

First: AGATTCCG
Second: GCGGGCCC
The “PBM E-score” value of the first is higher: 0.162 for the first, 0.0394 for the second.

First: CCCTCTTC
Second: ATTCCCAA
The “PBM E-score” value of the first is lower: -0.0279 for the first, 0.14 for the second.

Going from TGACTCAA to ATCCAAAT, the “PBM E-score” value rises from -0.0949 to 0.0589.

Compared with GAAAACCA, ATCGCATA is lower in “PBM E-score” value: 0.214 for the first, 0.0659 for the second.

Compared with ATGGGATA, GGTTTGGA is higher in “PBM E-score” value: -0.0812 for the first, 0.179 for the second.

First: AGTTATGC
Second: ACCGCCTA
The “PBM E-score” value of the first is higher: 0.143 for the first, -0.0957 for the second.

Compared with ACAGCACC, CCATTTTC is higher in “PBM E-score” value: -0.172 for the first, 0.0892 for the second.

Compared with CATATTAA, ACAGCCGG is lower in “PBM E-score” value: 0.184 for the first, -0.00808 for the second.

Compared with ACCAAGCA, CAGTGAAA is higher in “PBM E-score” value: 0.0769 for the first, 0.197 for the second.

Compared with ATGTCTGA, AAGCTCGA is lower in “PBM E-score” value: 0.179 for the first, 0.0599 for the second.

Compared with ACTGTTAC, CTAATTCA is higher in “PBM E-score” value: 0.124 for the first, 0.128 for the second.

Going from CGCATGTA to CGTACAAG, the “PBM E-score” value rises from -0.0582 to -0.0142.

Going from ATGTCGTG to AGTTATAA, the “PBM E-score” value rises from -0.203 to 0.133.

Going from AGGAGAAC to CGTTGTAC, the “PBM E-score” value rises from -0.152 to 0.0278.

Compared with ATGGAGTA, CCGCATAC is higher in “PBM E-score” value: -0.106 for the first, 0.0672 for the second.

Going from GGTCAGCA to GCGTATAC, the “PBM E-score” value falls from 0.224 to 0.146.

Compared with ATCCAGCA, ATACACTC is higher in “PBM E-score” value: -0.0382 for the first, 0.0368 for the second.

First: CTCAAGGC
Second: CAACGTCG
The “PBM E-score” value of the first is lower: -0.0817 for the first, -0.0477 for the second.

First: GACGCGGA
Second: ATGTGCTC
The “PBM E-score” value of the first is higher: -0.0862 for the first, -0.118 for the second.

First: ATCCCATG
Second: AATTCTGA
The “PBM E-score” value of the first is lower: 0.0232 for the first, 0.229 for the second.

First: GTCCTCAA
Second: CGGGTCCC
The “PBM E-score” value of the first is higher: -0.0951 for the first, -0.199 for the second.

Going from GTGAGGGA to TAAGCACA, the “PBM E-score” value rises from -0.277 to -0.025.

Compared with ATGATTCC, GAGTCGAA is higher in “PBM E-score” value: 0.102 for the first, 0.16 for the second.

Compared with ACTTTACC, TGGGATAA is lower in “PBM E-score” value: 0.108 for the first, -0.051 for the second.

Compared with TCCTAGGA, GGCGCGTA is higher in “PBM E-score” value: -0.147 for the first, -0.0805 for the second.

Going from GATATTCC to CCCCCCTA, the “PBM E-score” value falls from 0.00474 to -0.141.

Compared with CGCATATA, TATGCACA is lower in “PBM E-score” value: 0.0722 for the first, -0.111 for the second.

Compared with AGAGCTCG, GTCTCGGA is higher in “PBM E-score” value: -0.0466 for the first, 0.0796 for the second.

Going from AGGCTTGC to CCTGATAG, the “PBM E-score” value rises from -0.248 to -0.147.
